The campaign covered roughly 110,000 compounds. About 230 (0.21%) showed an effect of 50% or more. The list shows a part of the results.
biological target: DPAP1 (Plasmodium falciparum, UniProt Q8IIJ9); experiment: primary screen, percent inhibition; read by cleavage of a fluorogenic dipeptide substrate; higher = more effect of the substance; design: species or system P. falciparum D10 trophozoite lysates; single well
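Further: 30 min substrate incubation versus DMSO and 10 µM JCP410 controls.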

Sequence of DPAP1 (Q8IIJ9 whole entry, looked up): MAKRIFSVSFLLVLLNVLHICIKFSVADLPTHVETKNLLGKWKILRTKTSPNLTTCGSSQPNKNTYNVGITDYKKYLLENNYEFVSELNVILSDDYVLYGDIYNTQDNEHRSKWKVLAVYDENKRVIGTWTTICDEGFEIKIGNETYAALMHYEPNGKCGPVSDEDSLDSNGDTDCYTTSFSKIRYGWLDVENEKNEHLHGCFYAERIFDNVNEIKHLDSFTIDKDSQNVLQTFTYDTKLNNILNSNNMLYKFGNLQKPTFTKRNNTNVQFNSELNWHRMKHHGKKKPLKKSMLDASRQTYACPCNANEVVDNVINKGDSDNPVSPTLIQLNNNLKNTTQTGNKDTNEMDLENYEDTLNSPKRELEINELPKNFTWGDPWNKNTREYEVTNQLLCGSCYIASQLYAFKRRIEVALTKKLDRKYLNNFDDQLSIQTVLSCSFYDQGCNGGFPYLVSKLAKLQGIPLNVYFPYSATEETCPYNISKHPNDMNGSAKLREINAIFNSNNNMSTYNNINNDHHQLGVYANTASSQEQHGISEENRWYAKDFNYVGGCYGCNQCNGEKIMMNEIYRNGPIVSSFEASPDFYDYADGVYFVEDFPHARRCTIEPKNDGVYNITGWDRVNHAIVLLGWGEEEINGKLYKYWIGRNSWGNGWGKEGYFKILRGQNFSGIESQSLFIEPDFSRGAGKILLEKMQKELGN

| Structure (SMILES) | % Inhibition @ 10 uM [%] |
| --- | --- |
| COc1ccc(-c2c3c(nc4sc(C(=O)NCCc5ccccc5)c(N)c24)CC(C)(C)CC3=O)cc1 | 1.63 |
| Cc1noc(C)c1S(=O)(=O)N1CCCC(C(=O)NCCN2CCN(Cc3ccccc3)CC2)C1 (stereo not shown) | -2.83 |
| Cc1cc(C(F)(F)F)c(C#N)c(SCC(=O)Nc2ccc(F)cc2)n1 | 4.75 |
| COc1ccc(C2C(C#N)=C(N)N(c3c(F)cccc3F)C3=C2C(=O)CCC3)cc1OC (stereo not shown) | 3.26 |
| CCc1nnc(SCc2cccc(F)c2)c2cc3oc(C)cc3n12 | 5.69 |
| O=C(c1cnn2ccccc12)N1CCC(C(O)(c2ccccc2)c2ccccc2)CC1 | -6.52 |
| O=C(Nc1cc(NC(=O)c2ccccc2)c(C(=O)O)cc1C(=O)O)c1ccccc1 | 3.25 |
| NCCCc1nc2cc3sc(CCCN)nc3cc2s1 | -3.49 |
| Cc1cc(Cl)ccc1N(CC(=O)N1CCCCCC1)S(C)(=O)=O | 4.76 |
| CCc1c(C)sc(NC(=O)COCc2cc(-c3ccc4c(c3)OCO4)on2)c1C#N | 1.34 |
| CC(=O)N1C(=N)S/C(=C/c2cc3cccc(C)c3nc2N2CCCCC2)C1=O | 6.7 |
| Cc1ccccc1-c1nc(CS(=O)(=O)CC(=O)NCCCOC(C)C)c(C)o1 | -1.89 |
| COc1ccc(-c2nc3c4cnn(Cc5ccccc5)c4ncn3n2)cc1OC | 0.362 |
| CN(Cc1ccccc1)c1nc2c(S(=O)(=O)c3ccc(Cl)cc3)nnn2c2ccsc12 | -7.14 |
| O=C(O)CNC(=O)/C=C/c1cccc(Cl)c1 | 2.35 |
| C/C(=N\CCCN(C)C)c1c(C(F)(F)F)nn(-c2nc3ccccc3s2)c1O | -2.89 |
| N=c1c(C(=O)NCc2ccco2)cc2c(=O)n3ccccc3nc2n1CCc1ccccc1 | 5.17 |
| CCCC[C@@H](/C=C/S(=O)(=O)c1ccccc1)NC(=O)C(CSCc1ccccc1)CSCc1ccccc1 | -6.98 |
| CCOc1ccc(C2C3=C(O)CCCC3=NC(C)=C2C(=O)Nc2ccccc2C)cc1 (stereo not shown) | -8.56 |
| Cn1c(SCc2ccccc2)nc2c(c1=O)C1(CCCC1)Cc1ccccc1-2 | -3.93 |
| CCOC(=O)c1c(C)[nH]c(C)c1S(=O)(=O)NCC(=O)N1CCN(Cc2ccccc2)CC1 | -0.166 |
| Cc1ccc(-n2ncc3c(NC4CCCCC4)ncnc32)c(C)c1 | 4.77 |
| O=C(Nc1ccc(Cl)cc1)Nc1ccccc1OC(F)(F)C(F)Cl (stereo not shown) | -5.23 |
| CC(=O)Nc1ccc(N2C(=O)CC(Sc3nc4c(cc3C#N)CCCCC4)C2=O)cc1 (stereo not shown) | 5.67 |
| O=C(Nc1nccs1)c1ccc(COc2ccc(Cl)cc2)cc1 | 1.67 |

| Structure (SMILES) | % Inhibition @ 10 uM [%] |
| --- | --- |
| O=C(NCC1CCCO1)NC1CCCCC1 (stereo not shown) | -3.02 |
| CC(C)(C)c1ccc(C(=O)Nc2ncc(Cc3ccccc3)s2)cc1 | 4.95 |
| Cc1ccc(S(=O)(=O)N(CC(=O)NCc2cccnc2)c2cccc(Br)c2)cc1 | -4.93 |
| CC(=O)N1CCC(=O)c2cc3ccccc3cc21 | -9.24 |
| N#CC1=C(N)Oc2c(c(O)nc3ccccc23)C1c1ccccc1C(F)(F)F (stereo not shown) | 6.24 |
| CN1CCC(N(C)Cc2c(F)cccc2F)CC1 | 1.62 |
| CCc1ccc(S(=O)(=O)NCc2csc(-c3cccnc3)n2)s1 | -0.72 |
| C/C(Cl)=C/CSc1nc2c(c(=O)[nH]c(=O)n2C)n1C(C)C | -0.864 |
| COc1cccc(-c2nc(S)c3c(n2)Oc2cc(O)ccc2C3)c1OC | 4.6 |
| COc1ccc(C=C2C(=O)N(C)C(=O)N(C)C2=O)c(OC)c1 | 11.8 |
| COc1ccc(-c2cc3c(O)nncn3n2)cc1 | 3.3 |
| O=C(CN1CCCCC1)N1c2ccccc2Sc2ccccc21 | -5.13 |
| COc1ccc(N(CC(=O)Nc2ccccc2C)S(C)(=O)=O)cc1 | -0.796 |
| CC(C)N1C(=O)/C(=C\c2ccc(OCC(N)=O)c(Br)c2)S/C1=N/c1ccccc1 | 9.61 |
| CN(C)C(=O)c1ccc(N/C=C2/C(=O)NC(=O)N(c3ccc(Cl)cc3)C2=O)cc1 | 5.58 |
| COc1cccc(C2=NOC(C(=O)N3CCN(C(c4ccccc4)c4ccccc4)CC3)C2)c1 (stereo not shown) | 3.2 |
| O=C(NCCO)c1nnc(-c2cccc(Cl)c2)o1 | -0.0709 |
| COc1cccc(/C=c2\sc3nc(-c4cccc(Cl)c4)nn3c2=O)c1OC | -4.85 |
| C=CCC(N)(CC=C)c1ccc(C)cc1 | -0.759 |
| O=[N+]([O-])c1ccc(C(O)CNCc2ccccc2)cc1 (stereo not shown) | -2.59 |
| COc1ccc(/C=C/C(=O)c2cc3c(nc2C)CCCC3)cc1 | -5.96 |
| CCOc1cc2c(cc1OCC)C(CC(=O)O)N(C(=O)NCc1ccccc1)CC2 (stereo not shown) | -3.61 |
| COc1ccc(Cl)cc1C(=O)Nc1cccc(C)c1C | 4.49 |
| COc1ccc(NCc2ccc(OCC(=O)NC(C)(C)C)cc2)cc1 | -0.511 |
| Cc1cc(-c2ccc(C)c(S(=O)(=O)N(C)CCCc3ccco3)c2)on1 | -0.342 |

| Structure (SMILES) | % Inhibition @ 10 uM [%] |
| --- | --- |
| O=C(Nc1cccc(C(=O)O)c1)/C(=C\c1ccc2c(c1)OCO2)NC(=O)c1ccccc1 | 2.38 |
| COc1ccc(-c2nc(CSCC(=O)NCCC3=CCCCC3)c(C)o2)cc1 | 2.37 |
| O=Cc1cn(Cc2cc(=O)n3ccccc3n2)c2ccccc12 | -6.4 |
| Fc1ccccc1CNC1CCN(CCc2ccccc2)CC1 | 1.37 |
| Cc1nn(C(C)C(=O)NCCN2CCOCC2)c(=O)c2c1sc1ccccc12 (stereo not shown) | -11.5 |
| O=C(CN1CCN(Cc2cccc(Cl)c2)C1=O)NCc1ccccn1 | -9.46 |
| Cn1c(=O)[nH]c(=O)c2c1nc(Br)n2CC(O)COc1ccccc1 (stereo not shown) | 3.06 |
| OC(COc1ccc2ccccc2c1)CN1CCN(c2ccccc2F)CC1 (stereo not shown) | -4.65 |
| COc1cc2c(c(OC)c1)C1(CC(C)(C)N2)CC(C)(C)Nc2cc(OC)cc(OC)c21 | -6.02 |
| COc1ccc(CNCc2ccc3c(c2)OCO3)c(OC)c1OC | -0.116 |
| CCCN1CCC(N2CCN(c3ccc(C(C)=O)cc3)CC2)CC1 | -5.2 |
| N=c1c2c(-c3ccccc3)c(-c3ccccc3)n(Cc3ccco3)c2ncn1CCCn1ccnc1 | -1.47 |
| N#CC1=C(N)Oc2[nH]nc(C(F)(F)F)c2C1c1cccnc1 (stereo not shown) | -2.53 |
| CC(=O)Nc1ccc(Oc2cccc(Cl)c2Cl)c(Cl)c1 | -0.424 |
| NS(=O)(=O)c1ccc(-n2c(S)nnc2-c2ccc3ccccc3n2)cc1 | 5.5 |
| COc1ccccc1C(=O)Nc1ccc2oc(-c3cccnc3)nc2c1 | 3.53 |
| Cc1nc2sccn2c(=O)c1S(=O)(=O)N1CCC(Cc2ccccc2)CC1 | -4.95 |
| Cc1cc(Br)ccc1OCC(=O)NCCC1=CCCCC1 | -0.473 |
| COc1ccccc1CNC(=O)CN(C)S(=O)(=O)c1ccc2[nH]c3c(c2c1)CCCC3 | 0.95 |
| CCOC(=O)c1c(C)c(-c2ccccc2)n(CC(=O)NC2CCN(C(=O)OCC)CC2)c1C | -1.66 |
| CC(C)n1c(CCCO)nc2ccccc21 | 7.86 |
| Cc1ccc(-c2noc(CCC(=O)N3CCN(Cc4ccccc4)CC3)n2)cc1 | 5.1 |
| CCOC(=O)C1=C(CSc2nc(C)c(CCSC)[nH]2)NC(=O)NC1c1ccc2c(c1)OCO2 (stereo not shown) | 1.32 |
| Cc1c(Cl)cccc1-n1ncc(C(=O)O)c1C1CCNCC1 | -2.83 |
| CCOC(=O)C1=CN(C)C=C(C(=O)OCC)C1c1ccccc1OC | -5.05 |

| Structure (SMILES) | % Inhibition @ 10 uM [%] |
| --- | --- |
| O=C(NCc1ccco1)c1ccc(CS(=O)Cc2ccc(Cl)cc2)o1 (stereo not shown) | -0.716 |
| COc1ccc(CNC2CCCCC2)c(OC)c1 | 1.92 |
| CC1=NN(Cc2c(C)nn(Cc3ccccc3)c2C)C(C)(C)C1 | 16 |
| Oc1ccc2ccccc2c1CN1CCCCCC1 | 2.6 |
| O=C(CCSc1cccc2cccnc12)Nc1ccc(Cl)cc1 | -1.63 |
| CCOC(=O)c1c(C)[nH]c(C)c1S(=O)(=O)NCC(=O)N1CCn2c1nc1ccccc12 | -0.518 |
| CCn1nc(-c2cc(Br)cs2)nc2c(=O)n(C)c(=O)nc1-2 | 2.19 |
| Cc1ccc(C(=O)N(Cc2ccccc2)Cc2ccccc2)cc1 | -3.04 |
| FC(F)(F)c1nc(NCc2cccs2)nc2c1CCCCC2 | -0.972 |
| Cc1ccccc1Cn1c2ccccc2c2cnn(CC(=O)NC(C)C)c(=O)c21 | 3.4 |
| COc1cc(C(=O)OCCn2c(=O)c3c(ncn3CCCN(C)C)n(C)c2=O)cc(OC)c1OC | -8.69 |
| Cc1cc(C)c2ccc(/C=C/c3ccccc3N)nc2c1O | 1.83 |
| COc1ccc2c(c1OC)C(O)OC2C1c2c(cc3c(c2OC)OCO3)CCN1C (stereo not shown) | 0.709 |
| O=C(NC(Cc1c[nH]c2ccccc12)C(=O)NC1CCCCC1)OCc1ccccc1 (stereo not shown) | -3.96 |
| COc1ccc(Cl)cc1NC1=C(Cl)C(=O)N(Cc2ccccc2)C1=O | -1.07 |
| Cc1ccc(C)c(S(=O)(=O)/N=C2\C=C(NS(=O)(=O)c3ccccc3)C(=O)c3ccccc32)c1 | -5.2 |
| O=C(NCCc1ccccc1)c1ccccc1Cl | 6.8 |
| COc1ccc(-c2nc(CN3CCC(C(=O)NCC4CCCO4)CC3)c(C)o2)cc1OC (stereo not shown) | 2.37 |
| CCOC(=O)N1CCN(S(=O)(=O)c2cc(Cl)c(OC)cc2Cl)CC1 | 1.03 |
| COc1ccc(-c2cn3c(C)c(C(=O)N4CCc5ccccc5C4)sc3n2)cc1 | 1.55 |
| COc1ccc(OC)c(CN2CCN(Cc3cccc(OC)c3OC)CC2)c1 | 0.992 |
| Cn1cccc1Cc1nnc(SCC(=O)NCc2ccccc2)n1C | -2.45 |
